Assay results published in PubChem BioAssay AID1345082 (National Center for Advancing Translational Sciences (NCATS), 2018).
Screen size: about 94,000 compounds; about 4,000 (4.3%) were called active. Inconclusive means that the source gave no clear call. Such entries were picked first, then a sample of the others. Calls come from the whole dose curve; as a rule, active = well fitted inhibition curve with a large enough effect; inconclusive = small, poorly fitted or top-dose-only effect; inactive = no such curve, though single readings can be large or run the other way. Potencies of inconclusive entries are doubtful fits and often do not repeat.

experiment: Cytotoxic Profiling in NIH 3T3 Cell Line of Diverse Libraries Using Quantitative High-Throughput Screening; details: NIH 3T3 viability, CellTiter-Glo ATP luminescence, 48-72 h; activity change, negative = cytotoxicity: at 96.7 µM (top of the series) unless noted; series mostly up to 96.7 µM; note: nearly all actives have a fitted effect of over 55% in size
Procedure, shortened: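 Mouse fibroblast NIH 3T3 cells, 400 per well, received compound via pintool and were incubated for 48 or 72 hr prior to CellTiter-Glo ATP luminescence measurement.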
% is set by controls: 0 for no effect and ±100 for the full control effect; potency is the fitted concentration of half-maximal effect; tags give direction and shape of the fitted curve.

Compound	Potency	outcome	activity change, negative = cytotoxicity
COc1cccc(C(=O)N2CCN(c3ccc4ncc(-c5cccc(C(F)(F)F)c5)n4n3)CC2)c1	active: 11.2 µM		
O=C(CC1CCCCC1)NC1CCN(C(=O)N2CC3CC(C2)[C@H]2CCCC(=O)N2C3)CC1 (stereo partly specified)		inactive	
CN1C(=O)CS(=O)(=O)C12CCN(C(=O)COc1ccc(Cl)cc1)CC2	inconclusive: 50.1 µM [inhibitor, partial curve, poor fit]		
CCN(CC)C(=O)C(C)[C@@H]1CC[C@@]2(C)CC[C@H](NC(=O)c3cnccn3)[C@@H](C)[C@@H]2[C@H]1O (stereo partly specified)	inconclusive: 44.7 µM [inhibitor, partial curve]		
COc1cncc(CN2C[C@H]3[C@H](C2)[S+](=O)([O-])C(C)(C)C(=O)N3CC(C)C)c1	inconclusive: 100 µM [inhibitor, single point]		
COc1ncccc1CN1CC[C@@H]2OCC(=O)N(c3ccccc3)[C@H]2CC1			inactive: -20.8% [at 138 µM]
COc1ccc(CC(=O)N2CCCN(c3cc(-c4ccc(Cl)cc4)[nH]n3)CC2)cc1	inconclusive: 35.5 µM [inhibitor, partial curve, poor fit]		
CN(Cc1ccccc1C(F)(F)F)C(=O)Nc1ccccc1	inconclusive: 89.1 µM [inhibitor, partial curve]		
CS(=O)(=O)N1CCCN(Cc2ccccc2C#N)CCNC(=O)CC1c1ccccc1 (stereo unspecified)	inconclusive: 44.7 µM [inhibitor, partial curve, poor fit]		
Cc1ccc(CNC(=O)c2ccc(OC3CCN(S(C)(=O)=O)CC3)c(Cl)c2)s1	inconclusive: 56.2 µM [inhibitor, partial curve, poor fit]		
O=C(NCCc1ccc(Cl)cc1)c1nc2sccn2c1-c1ccc(F)cc1	inconclusive: 25.1 µM [inhibitor, partial curve]		
C[S+](=O)([O-])c1ccc(-c2ncc3c(n2)OCCN(c2ccccc2)C3=O)cc1	inconclusive: 100 µM [inhibitor, single point]		
O=C(Nc1cccc(-c2ccc(N3CCCC3)nn2)c1)Nc1cc(F)ccc1F	inconclusive: 50.1 µM [inhibitor, partial curve, poor fit]		
COc1ccc(NC(=O)c2ccc3c(c2)N(C)C2CCCCCN2C3=O)cc1OC (stereo unspecified)	inconclusive: 44.7 µM [inhibitor, partial curve, poor fit]		
CCOc1ccc(-c2nc(C3CC(=O)N(c4ccc(F)cc4)C3)no2)cc1 (stereo unspecified)			inactive: -25.3%
N#Cc1ccc(CN2CC[C@H](c3nnc(-c4ccccc4)o3)C2)cc1	inconclusive: 79.4 µM [inhibitor, partial curve, poor fit]		
COc1ccc(OC)c(-c2nc3cc4c(cc3cc2CN2CCCOCC2)OCO4)c1			inactive: -10.3%
O=C(O)c1ccccc1C(=O)N1CC[C@H]2COC(=O)N2c2cc(F)ccc2C1			inactive: 2.64% [at 174 µM]
CN(C(=O)Cc1ccc(F)cc1)C1CCCc2ccccc21 (stereo unspecified)			inactive: -24.4% [at 138 µM]
O=C(Nc1cccc(-c2nnc3n2CCCC3)c1)c1ccsc1	inconclusive: 14.1 µM [inhibitor, full curve, poor fit]		
Cc1oc(C(O)c2ccccc2F)nc1C(=O)Nc1ccc(N2CCOCC2)cc1 (stereo unspecified)			inactive: -25.1% [at 138 µM]

Compound	Potency	outcome	activity change, negative = cytotoxicity
CC(C)n1cnnc1CC1CCCNC1 (stereo unspecified)			inactive: -3.78%
O=C(NCc1ccc(C(F)(F)F)cc1)C1CCN(Cc2ccccc2-c2ccccc2F)CC1	inconclusive: 22.4 µM [inhibitor, full curve, poor fit]		
OC1CC(c2cc(NCCSC3CCCCC3)ncn2)C1 (stereo unspecified)	inconclusive: 28.2 µM [inhibitor, partial curve]		
CC(C)=CCC1(CO)CCCN(c2ccnc(N)n2)C1 (stereo unspecified)			inactive: -5.57%
Cc1cc2cc(-c3c(C)noc3C)nc(-c3cccc([S+](C)(=O)[O-])c3)c2o1	active: 11.2 µM		
O=C(c1ccc(Cl)cc1)N1CCC2(CC1)CC(c1cccnc1)=NO2	inconclusive: 50.1 µM [inhibitor, partial curve, poor fit]		
C[S+](=O)([O-])N1CC2(Cc3ccccc31)CN(C(=O)Nc1ccccc1)C2			inactive: -11.2%
COc1cccc(C(=O)Nc2cc(C3CCCC3)nn2C)c1	inconclusive: 89.1 µM [inhibitor, partial curve]		
COc1ccc(-c2noc([C@@H]3C[C@@H](O)CN3Cc3ccccn3)n2)cc1	active: 35.5 µM		
O=C(Cc1c[nH]c2ncc(-c3ccc(F)c(Cl)c3)cc12)NCc1cccnc1	inconclusive: 56.2 µM [inhibitor, partial curve, poor fit]		
CCN(C(=O)CN1C=C(C(=O)OC)C(C)=NS1(=O)=O)c1cccc(C)c1			inactive: -18.5%
CN1CCCN(C(=O)Cc2ccccc2F)c2ccccc21	inconclusive: 44.7 µM [inhibitor, partial curve, poor fit]		
O=C(c1ccc(-c2cccc(F)c2)nc1)N1CCCC(c2ccccc2)CC1 (stereo unspecified)	inconclusive: 79.4 µM [inhibitor, partial curve, poor fit]		
Cc1ccc(C(=O)N2C(C(=O)NCC(C)C)COC23CCN(C(=O)c2cccc(Cl)c2)CC3)cc1 (stereo unspecified)	inconclusive: 44.7 µM [inhibitor, partial curve, poor fit]		
CCC#CCN1Cc2cc(OC)ccc2N(CC(O)Cc2ccccc2)CCC1=O (stereo unspecified)	inconclusive: 44.7 µM [inhibitor, partial curve, poor fit]		
COc1ccccc1Nc1ccnc(N2CCN([S+](=O)([O-])c3c(C)noc3C)CC2)n1	inconclusive: 20 µM [inhibitor, full curve, poor fit]		
Cn1ncc2c(C(=O)NCc3cccc(Cl)c3)cc(-c3ccc(F)cc3)nc21	inconclusive: 39.8 µM [inhibitor, partial curve]		
Cc1ccc(NC(=O)CCc2ccnc(N3CCCC3)c2)c(C)c1	inconclusive: 11.2 µM [inhibitor, partial curve, poor fit]		
CSc1ccc(-c2cccc(CN3CCC(N[S+](C)(=O)[O-])CC3)c2)cc1	inconclusive: 44.7 µM [inhibitor, partial curve, poor fit]		
COc1ccccc1Nc1ccnc(N2CCN(C(=O)c3ccc(Cl)nc3)CC2)n1	inconclusive: 7.94 µM [inhibitor, partial curve, poor fit]		
